Test results published in the supplement of paper PMC8728848.
The other results are listed elsewhere or left out.

Experiments:
Test in all cases: glycan array binding signal (z-score within array); higher = stronger binding
Details in all cases: glycan notation: IUPAC condensed, linker removed
[1] = target: Glc(a1-4)Glc
Procedure, shortened: (§1)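 Columns mapping to the same glycan were averaged after glycan names were converted to IUPAC-condensed notation. The data come from 3228 arrays in the Consortium for Functional Glycomics database, limited to those with an available protein sequence. Binding is reported as a within-array Z-score averaged across arrays of one protein sequence and across linkers.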

[2] = target: Glc(a1-6)Glc(a1-6)Glc
Procedure, shortened: as §1

[3] = target: Glc(b1-4)Glc
Procedure, shortened: as §1

[4] = target: Glc(b1-6)Glc
Procedure, shortened: as §1

[5] = target: GlcA(b1-3)Gal
Procedure, shortened: as §1

[6] = target: GlcA(b1-3)GlcNAc
Procedure, shortened: as §1

[7] = target: GlcA(b1-6)Gal
Procedure, shortened: as §1

[8] = target: GlcNAc(a1-3)Gal(b1-4)GlcNAc
Procedure, shortened: as §1

[9] = target: GlcNAc(a1-4)Gal(b1-3)GlcNAc
Procedure, shortened: as §1

[10] = target: GlcNAc(a1-4)Gal(b1-4)GalNAc
Procedure, shortened: as §1

[11] = target: GlcNAc(a1-4)Gal(b1-4)GlcNAc
Procedure, shortened: as §1

[12] = target: GlcNAc(a1-4)Gal(b1-4)GlcNAc(b1-3)Gal(b1-4)Glc
Procedure, shortened: as §1

[13] = target: GlcNAc(a1-4)Gal(b1-4)GlcNAc(b1-3)Gal(b1-4)GlcNAc
Procedure, shortened: as §1

[14] = target: GlcNAc(a1-4)Gal(b1-4)GlcNAc(b1-3)Gal(b1-4)GlcNAc(b1-3)Gal(b1-4)GlcNAc
Procedure, shortened: as §1

[15] = target: GlcNAc(a1-4)Gal(b1-4)GlcNAc(b1-3)Gal(b1-4)[Fuc(a1-3)]GlcNAc(b1-3)Gal(b1-4)[Fuc(a1-3)]GlcNAc
Procedure, shortened: as §1

[16] = target: GlcNAc(a1-6)Gal(b1-4)GlcNAc
Procedure, shortened: as §1

[17] = target: GlcNAc(b1-2)Gal(b1-3)GalNAc
Procedure, shortened: as §1

[18] = target: GlcNAc(b1-2)Man(a1-3)[GlcNAc(b1-2)Man(a1-6)]Man(b1-4)GlcNAc(b1-4)GlcNAc
Procedure, shortened: as §1

[19] = target: GlcNAc(b1-2)Man(a1-3)[GlcNAc(b1-2)Man(a1-6)]Man(b1-4)GlcNAc(b1-4)[Fuc(a1-6)]GlcNAc
Procedure, shortened: as §1

[20] = target: GlcNAc(b1-3)Gal
Procedure, shortened: as §1

[21] = target: GlcNAc(b1-3)Gal(b1-3)GalNAc
Procedure, shortened: as §1

[22] = target: GlcNAc(b1-3)Gal(b1-4)Glc
Procedure, shortened: as §1

[23] = target: GlcNAc(b1-3)Gal(b1-4)GlcNAc
Procedure, shortened: as §1

[24] = target: GlcNAc(b1-3)Gal(b1-4)GlcNAc(b1-3)Gal(b1-4)GlcNAc
Procedure, shortened: as §1

[25] = target: GlcNAc(b1-3)GalNAc
Procedure, shortened: as §1

[26] = target: GlcNAc(b1-3)Man
Procedure, shortened: as §1

[27] = target: GlcNAc(b1-3)[GlcNAc(b1-4)][GlcNAc(b1-6)]GlcNAc
Procedure, shortened: as §1

[28] = target: GlcNAc(b1-3)[GlcNAc(b1-6)]Gal(b1-4)GlcNAc
Procedure, shortened: as §1

[29] = target: GlcNAc(b1-3)[GlcNAc(b1-6)]GalNAc
Procedure, shortened: as §1

[30] = target: GlcNAc(b1-4)Gal(b1-4)GlcNAc
Procedure, shortened: as §1

[31] = target: GlcNAc(b1-4)GlcNAc
Procedure, shortened: as §1

[32] = target: GlcNAc(b1-4)GlcNAc(b1-4)GlcNAc
Procedure, shortened: as §1

[33] = target: GlcNAc(b1-4)GlcNAc(b1-4)GlcNAc(b1-4)GlcNAc(b1-4)GlcNAc
Procedure, shortened: as §1

[34] = target: GlcNAc(b1-4)GlcNAc(b1-4)GlcNAc(b1-4)GlcNAc(b1-4)GlcNAc(b1-4)GlcNAc
Procedure, shortened: as §1

[35] = target: GlcNAc(b1-4)[GlcNAc(b1-6)]GalNAc
Procedure, shortened: as §1

[36] = target: GlcNAc(b1-6)Gal(b1-4)GlcNAc
Procedure, shortened: as §1

[37] = target: GlcNAc(b1-6)GalNAc
Procedure, shortened: as §1

[38] = target: GlcNAc3Prop(b1-4)GlcNAc
Procedure, shortened: as §1

[39] = target: GlcNAc6S(b1-3)Gal(b1-4)GlcNAc
Procedure, shortened: as §1

[40] = target: Kdn(a2-3)Gal(b1-3)GalNAc
Procedure, shortened: as §1

[41] = target: Kdn(a2-3)Gal(b1-3)GlcNAc
Procedure, shortened: as §1

[42] = target: Kdn(a2-3)Gal(b1-4)Glc
Procedure, shortened: as §1

[43] = target: Kdn(a2-3)Gal(b1-4)GlcNAc
Procedure, shortened: as §1

[44] = target: Kdn(a2-3)Gal(b1-4)[Fuc(a1-3)]GlcNAc
Procedure, shortened: as §1

[45] = target: Kdn(a2-6)Gal(b1-4)GlcNAc
Procedure, shortened: as §1

[46] = target: Man(a1-2)Man(a1-2)Man(a1-3)Man
Procedure, shortened: as §1

[47] = target: Man(a1-2)Man(a1-2)Man(a1-6)[Man(a1-3)]Man
Procedure, shortened: as §1

[48] = target: Man(a1-2)Man(a1-3)Man
Procedure, shortened: as §1

[49] = target: Man(a1-2)Man(a1-3)[Man(a1-2)Man(a1-6)]Man
Procedure, shortened: as §1

[50] = target: Man(a1-2)Man(a1-3)[Man(a1-2)Man(a1-6)]Man(a1-6)[Man(a1-2)Man(a1-2)Man(a1-3)]Man
Procedure, shortened: as §1

[51] = target: Man(a1-2)Man(a1-3)[Man(a1-2)Man(a1-6)]Man(a1-6)[Man(a1-2)Man(a1-2)Man(a1-3)]Man(b1-4)GlcNAc(b1-4)GlcNAc
Procedure, shortened: as §1

[52] = target: Man(a1-2)Man(a1-3)[Man(a1-6)]Man(a1-6)[Man(a1-2)Man(a1-3)]Man(b1-4)GlcNAc(b1-4)GlcNAc
Procedure, shortened: as §1

[53] = target: Man(a1-2)Man(a1-6)[Man(a1-3)]Man(a1-6)[Man(a1-2)Man(a1-2)Man(a1-3)]Man
Procedure, shortened: as §1

[54] = target: Man(a1-2)Man(a1-6)[Man(a1-3)]Man(a1-6)[Man(a1-2)Man(a1-2)Man(a1-3)]Man(b1-4)GlcNAc(b1-4)GlcNAc
Procedure, shortened: as §1

[55] = target: Man(a1-3)[Man(a1-6)]Man
Procedure, shortened: as §1

[56] = target: Man(a1-3)[Man(a1-6)]Man(a1-6)[Man(a1-2)Man(a1-3)]Man(b1-4)GlcNAc(b1-4)GlcNAc
Procedure, shortened: as §1

[57] = target: Man(a1-3)[Man(a1-6)]Man(a1-6)[Man(a1-3)]Man
Procedure, shortened: as §1

[58] = target: Man(a1-3)[Man(a1-6)]Man(a1-6)[Man(a1-3)]Man(b1-4)GlcNAc(b1-4)GlcNAc
Procedure, shortened: as §1

[59] = target: Man(a1-3)[Man(a1-6)]Man(b1-4)GlcNAc(b1-4)GlcNAc
Procedure, shortened: as §1

[60] = target: Man(a1-6)Man
Procedure, shortened: as §1

B1: Eap (Staphylococcus aureus), A0A7L5PYT7 (protein)
chain: MKFKSLITTTLALGVLASTGANFNNNEAAAAAKPLDKSSSSLHHGYSKVHVPYAITVNGTSQNILSSLTFNKNQNISYKDLEDRVKSVLKSDRGISDIDLRLSKQAKYTVYFKNGTKKVIDLKAGIYTADLINTSEIKAININVDTKKQVEDKKKDKANYQVPYTITVNGTSQNILSNLTFNKNQNISYKDLEDKVKSVLESNRGITDVDLRLSKQAKYTVNFKNGTKKVIDLKSGIYTANLINSSDIKSININVDTKKHIENKAKRNYQVPYSINLNGTSTNILSNLSFSNKPWTNYKNLTSQIKSVLKHDRGISEQDLKYAKKAYYTVYFKNGGKRILQLNSKNYTANLVHAKDVKRIEITVKTGTKAKADRYVPYTIAVNGTSTPILSDLKFTGDPRVGYKDISKKVKSVLKHDRGIGERELKYAKKATYTVHFKNGTKKVININSNISQLNLLYVQDIKKIDIDVKTGTKAKADSYVPYTIAVNGTSTPILSKLKISNKQLISYKYLNDKVKSVLKSERGISDLDLKFAKQAKYTVYFKNGKKQVVNLKSDIFTPNLFSAKDIKKIDIDVKQYTKSKKNK
For B1, the “glycan array binding signal (z-score)” value [1] was -0.033, the “glycan array binding signal (z-score)” value [2] was 0.42 and the “glycan array binding signal (z-score)” value [3] was -0.215. The “glycan array binding signal (z-score)” value [4] was -0.281, the “glycan array binding signal (z-score)” value [5] was -0.349 and the “glycan array binding signal (z-score)” value [6] was 0.597. For the same binder, the “glycan array binding signal (z-score)” value [7] was -0.24, the “glycan array binding signal (z-score)” value [8] was -0.688 and the “glycan array binding signal (z-score)” value [9] was 0.121. The “glycan array binding signal (z-score)” value [10] was 1.87, the “glycan array binding signal (z-score)” value [11] was 0.255 and the “glycan array binding signal (z-score)” value [12] was 4.14. For the same binder, the “glycan array binding signal (z-score)” value [13] was 4.58, the “glycan array binding signal (z-score)” value [14] was -0.586 and the “glycan array binding signal (z-score)” value [15] was 8.99. The “glycan array binding signal (z-score)” value [16] was -0.411, the “glycan array binding signal (z-score)” value [17] was -0.147 and the “glycan array binding signal (z-score)” value [18] was -0.568. The “glycan array binding signal (z-score)” value [19] was 1.27, the “glycan array binding signal (z-score)” value [20] was -0.31 and the “glycan array binding signal (z-score)” value [21] was 0.142. The “glycan array binding signal (z-score)” value [22] was 0.077, the “glycan array binding signal (z-score)” value [23] was -0.582 and the “glycan array binding signal (z-score)” value [24] was -0.366. For the same binder, the “glycan array binding signal (z-score)” value [25] was -0.632, the “glycan array binding signal (z-score)” value [26] was 0.937 and the “glycan array binding signal (z-score)” value [27] was -0.346. The “glycan array binding signal (z-score)” value [28] was -0.028, the “glycan array binding signal (z-score)” value [29] was -0.455 and the “glycan array binding signal (z-score)” value [30] was -0.539. For the same binder, the “glycan array binding signal (z-score)” value [31] was -0.051, the “glycan array binding signal (z-score)” value [32] was -0.402 and the “glycan array binding signal (z-score)” value [33] was -0.61. The “glycan array binding signal (z-score)” value [34] was -0.455, the “glycan array binding signal (z-score)” value [35] was -0.36 and the “glycan array binding signal (z-score)” value [36] was -0.384. For the same binder, the “glycan array binding signal (z-score)” value [37] was -0.132, the “glycan array binding signal (z-score)” value [38] was -0.616 and the “glycan array binding signal (z-score)” value [39] was -0.523. The “glycan array binding signal (z-score)” value [40] was -0.484, the “glycan array binding signal (z-score)” value [41] was -0.378 and the “glycan array binding signal (z-score)” value [42] was -0.129. For the same binder, the “glycan array binding signal (z-score)” value [43] was -0.418, the “glycan array binding signal (z-score)” value [44] was 0.774 and the “glycan array binding signal (z-score)” value [45] was -0.601. The “glycan array binding signal (z-score)” value [46] was -0.489, the “glycan array binding signal (z-score)” value [47] was -0.492 and the “glycan array binding signal (z-score)” value [48] was -0.199. The “glycan array binding signal (z-score)” value [49] was -0.288, the “glycan array binding signal (z-score)” value [50] was -0.59 and the “glycan array binding signal (z-score)” value [51] was 0.009. For the same binder, the “glycan array binding signal (z-score)” value [52] was -0.331, the “glycan array binding signal (z-score)” value [53] was -0.606 and the “glycan array binding signal (z-score)” value [54] was -0.456. For the same binder, the “glycan array binding signal (z-score)” value [55] was -0.358, the “glycan array binding signal (z-score)” value [56] was -0.146 and the “glycan array binding signal (z-score)” value [57] was -0.465. The “glycan array binding signal (z-score)” value [58] was -0.397, the “glycan array binding signal (z-score)” value [59] was -0.309 and the “glycan array binding signal (z-score)” value [60] was 0.115.
